# Laboratory results published in PMC6919601, “Identification of Plasmodium dipeptidyl aminopeptidase allosteric inhibitors by high throughput screening” (PLoS ONE, 2019).
# Values joined by “and” are separate entries in the source; they are usually repeats but may differ in a detail not shown here. Identical values can stand only once. Out of some 110,000 compounds screened, about 230 (0.21%) showed an effect of 50% or more. The list shows a part of the results.
# Target: DPAP1 (Plasmodium falciparum, UniProt Q8IIJ9)
# Test: primary screen, percent inhibition; read by cleavage of a fluorogenic dipeptide substrate; higher = more effect of the substance
# Design: species or system P. falciparum D10 trophozoite lysates; single well
# 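Further: 30 min substrate incubation versus DMSO and 10 µM JCP410 controls.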
# Chain of DPAP1 (Q8IIJ9 whole entry, looked up): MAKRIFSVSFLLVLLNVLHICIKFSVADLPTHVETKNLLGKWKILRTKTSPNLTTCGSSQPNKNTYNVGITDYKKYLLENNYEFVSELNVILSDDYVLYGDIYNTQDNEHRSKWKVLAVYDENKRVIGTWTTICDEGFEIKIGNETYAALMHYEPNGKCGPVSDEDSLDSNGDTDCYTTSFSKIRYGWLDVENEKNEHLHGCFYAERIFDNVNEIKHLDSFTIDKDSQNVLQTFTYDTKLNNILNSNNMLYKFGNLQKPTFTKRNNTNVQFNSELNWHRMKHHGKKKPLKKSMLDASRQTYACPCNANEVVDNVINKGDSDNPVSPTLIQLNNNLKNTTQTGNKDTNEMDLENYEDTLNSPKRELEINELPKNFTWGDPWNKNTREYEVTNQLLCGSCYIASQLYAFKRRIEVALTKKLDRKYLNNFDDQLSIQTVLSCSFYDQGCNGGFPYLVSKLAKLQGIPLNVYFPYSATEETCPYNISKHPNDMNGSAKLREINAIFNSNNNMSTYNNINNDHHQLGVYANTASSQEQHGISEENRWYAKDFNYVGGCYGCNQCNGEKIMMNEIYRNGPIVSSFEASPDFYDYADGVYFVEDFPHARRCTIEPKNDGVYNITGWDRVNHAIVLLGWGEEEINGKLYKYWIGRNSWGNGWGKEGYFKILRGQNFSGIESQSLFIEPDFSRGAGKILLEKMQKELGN
row,Structure (SMILES),% Inhibition @ 10 uM
1,O=C(CC1c2ccccc2Oc2ccccc21)NCC1CCCO1 (centres unmarked),-4.67%
2,CC(C)Cc1ccc(C(C)C(=O)Nc2ccccn2)cc1 (centres unmarked),2.34%
3,CCN(CC)C(=O)NCCN1C(=O)C2C3C=CC(C3)C2C1=O (centres unmarked),-6.78%
4,CN(Cc1ccccc1)C(=O)CCNS(=O)(=O)c1ccc2nc(O)ccc2c1,-5.85%
5,COc1ccc(C(=O)NCCn2cc(SCC(=O)N3CCCCC3)c3ccccc32)cc1,3.54%
6,CCOC(=O)C1=C(CN2CCCCC2)NC(=O)NC1c1ccc(Cl)cc1 (centres unmarked),-1.72%
7,COc1ccc(/C=c2/sc3nc4c(C)c(C)ccc4n3c2=O)cc1,-0.053%
8,C=CCn1c(SCC(=O)NCc2ccc3c(c2)OCO3)nc2sc3c(c2c1=O)CCC3,-10.3%
9,CCN(CC)CC(O)Cn1c2ccccc2c2ccccc21 (centres unmarked),-5.62%
10,Cc1ccc(-c2cc3c(nn2)-c2ccccc2C3=O)o1,-0.736%
11,COc1ccc(C(=O)Nc2cc(C(F)(F)F)ccc2Cl)cc1OC,-2.03%
12,CC(CCc1ccccc1)NC(=O)C1CCCN(S(=O)(=O)c2ccc3nc(O)ccc3c2)C1 (centres unmarked),-7.74%
13,CCOc1ccc(C2C3=C(O)CCCC3=NC(C)=C2C(=O)Nc2ccc(Br)cn2)cc1 (centres unmarked),2.7%
14,CC1=C(C(=O)OC2CCCC2)C(c2ccncc2)C2=C(O)CC(C)(C)CC2=N1 (centres unmarked),1.27%
15,COc1ccc2c(=O)c(-c3ccccc3)c(C)oc2c1C,-18.8%
16,CCn1cc(/C=C2\CCCC3=C2OC(N)=C(C#N)C3c2cn(CC)nc2C)c(C)n1 (centres unmarked),-2.24%
17,Nc1c(Nc2ccc(C(=O)O)cc2)c2ccccc2oc1=O,-2.6%
18,Fc1ccccc1N1CCN(Cc2ccc3ccccc3c2)CC1,0.605%
19,Cc1ccsc1/C=C1/SC(N2CC(C)OC(C)C2)=NC1=O (centres unmarked),4.74%
20,Cc1cc(C)c2c(C)nn(-c3ccc(Br)cc3)c2n1,-3.14%
21,O/N=C1\C2CCN(CC2)C1Cc1ccccc1O (centres unmarked),-0.0648%
22,CCC(Cc1ccccc1)NC(=O)Cn1cccc1C(=O)c1ccccc1 (centres unmarked),1.15%
23,Cc1nsc2c1ccc1sccc12,3.36%
24,NS(=O)(=O)c1ccc(NC(=O)/C(=C/c2ccc([N+](=O)[O-])cc2)NC(=O)c2ccccc2)cc1,5.04%
25,COc1ccccc1OCc1ccc(C(=O)N2CC(C)OC(C)C2)cc1 (centres unmarked),-1.93%

row,Structure (SMILES),% Inhibition @ 10 uM
1,O=C(Nc1ccc(Cl)c(Cl)c1)[C@@H]1C[C@@H]1c1ccccc1,-3.13%
2,COc1ccc(-c2noc(CSc3nnc(-c4ccncc4)n3-c3ccc(F)cc3)n2)cc1,6.01%
3,Cc1ccccc1OCC(=O)N(Cc1sccc1C)C1CCS(=O)(=O)C1 (centres unmarked),0.569%
4,CC(C)C[C@H](NC(=O)c1cc(-c2ccccc2Cl)c(Cl)s1)C(=O)NCC#N,-3.48%
5,COc1ccc(N(Cc2ccc(Br)cc2)C(=O)c2ccc([N+](=O)[O-])cc2)cc1,3.42%
6,O=C(Nc1ccc(Cl)cc1)C(O)(c1ccccc1)c1ccccc1,6.09%
7,CCOC(=O)N1CCC(n2c(SCC(=O)Nc3nccs3)nc3ccsc3c2=O)CC1,3.05%
8,CCN(CC)CCCNC(=O)CSc1nc2nc(C)c(Cc3ccc(C)cc3)c(C)n2n1,-10.7%
9,O=C1NC(=O)/C(=C\c2ccc(N3CCOCC3)o2)N1,-7.23%
10,COc1ccc(C2CC(=O)C(/C=N/CCN3CCN(C(=O)c4ccccc4)CC3)=C(O)C2)cc1 (centres unmarked),-3.14%
11,CN1C(=O)NC(=O)/C(=C/c2cc(Br)cc(Cl)c2O)C1=O,-0.274%
12,Cc1ccc(CCSc2ccc(F)cc2)cn1,-1.45% and 3.12%
13,Cc1cccc(NC(=O)c2cc3ccccc3cc2O)c1C,2.34%
14,Cc1cccc(NC(=O)CSc2nc(O)c(C#N)c(-c3ccccc3)n2)c1C,1.4%
15,O=C(CCc1nc2cccnc2n1Cc1cccs1)NCc1ccccc1Cl,-1.7%
16,CCc1ccc(NC(=O)CC2(c3ccccc3)C(=O)c3ccccc3C2=O)cc1,-3.81%
17,O=C(c1cccnc1N1CCN(CCO)CC1)N1CCOCC1,-6.36%
18,O=C(c1ccc(Br)o1)N1CCc2ccccc21,1.84%
19,CCc1nnc(NC(=O)CSC2=NC(=O)C(c3ccccc3)C(=O)N2)s1 (centres unmarked),1.26%
20,Cc1cc(NC(=O)c2ccc(C(=O)Nc3cc(C)on3)nc2)no1,-6.25%
21,O=C(CNC(=O)OCc1ccccc1)NCCc1nc2ccccc2[nH]1,-0.0735%
22,COc1ccc(C(=O)NC2CCCCCCC2)cc1OC,-0.999%
23,O=C1/C(=C/c2ccc3nccnc3c2)Cc2ccccc21,-2.95%
24,COc1ccc(C(=O)NC(c2ccccc2)c2ccccc2)cc1OC,0.431%
25,Cc1ccc(NC(=O)CN2CCOCC2)cc1Br,5.97%

row,Structure (SMILES),% Inhibition @ 10 uM
1,COc1ccccc1C1C(C#N)=C(N)N(c2cccnc2)C2=C1C(=O)CC(C)(C)C2 (centres unmarked),2.01%
2,CCOc1ccc(/C=C(\C#N)C(N)=O)cc1,-5.73%
3,Cc1ccc2c(c1)C1CCCC3C1N2CC(=O)N3Cc1ccccc1 (centres unmarked),0.345%
4,CN(C)c1ccc2c(c1)OC(N)=C(C#N)C2c1cccc(F)c1 (centres unmarked),-4.3%
5,COc1ccc2cc(Br)ccc2c1CC(=O)Nc1nccs1,-1.37%
6,Cc1ccc(C)c(OCc2ccc(C(=O)N3N=C(C(F)F)CC3(O)C(F)F)o2)c1 (centres unmarked),-0.116%
7,CCCN1CCN(C(=O)c2ccc3c(c2)sc2nc(-c4ccc(OC)cc4)cn23)CC1,15.3%
8,Cc1ccc(Cn2c(=O)n(CCC(=O)NCc3ccc4c(c3)OCO4)c(=O)c3sccc32)cc1,-1.21%
9,O=C1CS/C(=N/c2ccc(Br)cc2)N1Cc1ccccc1,0.24%
10,Cc1cc(OCC(=O)Nc2cccc(-c3nc4ncccc4o3)c2)ccc1Cl,0.214%
11,O=C(COc1ccccc1)N1CCN(C(=O)c2ccccc2F)CC1,-0.999%
12,O=C(OCC1OC(O)C(O)C(O)C1O)C1CCCN1C(=O)OCc1ccccc1 (centres unmarked),0.00784%
13,CN(CCN1CCOCC1)C1CCN(C(=O)CNC(=O)/C=C/c2cccs2)CC1,0.689%
14,N=C1S/C(=C\c2ccc(N3CCOCC3)cc2)C(=O)N1c1ccc(Br)cc1,0.605%
15,N=c1c(C(=O)NCCc2ccccc2)cc2c(=O)n3ccccc3nc2n1CC1CCCO1 (centres unmarked),-3.27%
16,COc1ccc(C(=O)Nc2nc(-c3ccc(F)cc3)cs2)cc1OC,6.35%
17,CC(NC(=O)c1ccccc1NS(=O)(=O)c1ccc2c(c1)OCCO2)c1ccccc1 (centres unmarked),-1.02%
18,CCC(C)NC(=O)CC(c1ccccc1)c1cc(Cl)ccc1O (centres unmarked),-4.12%
19,CSc1ncc(C(=O)NCc2cccc(Br)c2)c(C)n1,5.86%
20,CC1=C(C(=O)Nc2ccc(Br)cc2)C(c2cccs2)NC(S)=N1 (centres unmarked),-9.49%
21,Cc1ccc(C(=O)N/C(=C/c2ccccc2)C(=O)NC(CC(C)C)C(=O)O)cc1 (centres unmarked),3.54%
22,CCCC1=C(C(=O)OCC)C(c2ccccc2F)NC(=O)N1 (centres unmarked),-0.267%
23,OC1(c2ccc(Br)cc2)CCN(Cc2ccc(F)cc2)CC1,-0.292%
24,COc1cccc(C2C(C#N)=C(N)Oc3[nH]nc(-c4ccccc4)c32)c1 (centres unmarked),-2.56%
25,Cc1ccc(-c2[nH]nc3c2C(c2ccccc2)NC3=O)cc1 (centres unmarked),-1.54%

row,Structure (SMILES),% Inhibition @ 10 uM
1,O=C(Nc1ccc(N2CCOCC2)c2nonc12)C1CCCC1,-1.07%
2,Cc1ccc(C(=O)NCc2cc(-c3nn(C)c(=O)c4ccccc34)ccc2C)cc1,-1.17%
3,CCCN(CCC)c1ncnc2c1cnn2-c1ccc(OC)cc1,-2.84%
4,CCC(=O)Nc1ccc2nc(SCC(=O)N3CCCC3)sc2c1,1.82%
5,Cn1cc(/C=C2\NC(=O)N(Cc3ccc(Cl)cc3)C2=O)c2ccccc21,3.8%
6,O=C(O)C1NCCc2ccccc21 (centres unmarked),2.65%
7,Cc1ccc2c(c1)[C@@H]1CN(C)CC[C@@H]1N2C(=O)CCCCCN1C(=O)c2ccccc2C1=O,5.48%
8,CCOc1ccc(NC(=O)COc2ccc(C(=O)NC3CCCCC3)cc2)cc1,0.709%
9,COc1ccc(O)c(-c2cc(-c3ccc(C)cc3)[nH]n2)c1,2.17%
10,Cc1ccc2oc(C(F)F)cc(=O)c2c1,-3.4%
11,N#CCNC(=O)[C@H](Cc1cc(I)c(O)c(I)c1)NC(=O)c1ccc(N2CCOCC2)cc1,-3.04%
12,COc1cccc(C(=O)Nc2ccc(C)cc2Br)c1,-2.22%
13,Cc1ccc(C)c(Cc2c(C)nc(C)nc2O)c1,-5.1%
14,COc1ccc(CCNC(=O)OCc2ccccc2)cc1OC,-5.4%
15,CCOC(=O)c1c(C)nc2ccccc2c1N,0.231%
16,O=C1C2C3CCC(O3)C2C(=O)N1c1ccc(-c2ccc(Cl)cc2)cc1 (centres unmarked),-2.77%
17,O=C1C2C3C=CC(C2C(=O)N1c1nccs1)C1C(=O)N(c2nccs2)C(=O)C31 (centres unmarked),-0.969%
18,CC(C)(C)C(=O)NCC(c1cccnc1)N1CCOCC1 (centres unmarked),-0.719%
19,C=C(C)Cn1c(CCNC(=O)c2cc(OC)c(OC)c(OC)c2)nc2ccccc21,2.83%
20,C=CCn1c(=N)c(S(=O)(=O)c2ccc(Cl)cc2)cc2c(=O)n3cccc(C)c3nc21,5.12%
21,Cc1cccc(NC(=O)c2ccc(OC(F)F)cc2)c1C,1.87%
22,Cc1ccc(-n2c3c(c(=O)[nH]c2=O)C(NC(=O)c2ccc(F)cc2)(C(F)(F)F)C(=O)N3)cc1 (centres unmarked),-7.18%
23,CCOc1ccc(CNCCc2ccc(OC)c(OC)c2)cc1,1.26%
